Data reported in US6040291A, “Antimicrobial peptide” (Seikagaku Corporation, priority 1998, dated 2000).
Values joined by “and” are separate entries in the source; they are usually repeats but may differ in a detail not shown here. Identical values can stand only once. At least one peptide structure holds a part that was inferred or is arguable (an end, a ring closure or a residue). Where no end group is shown, it is not given here.

Key:
[1] = LPS-binding activity (minimum agglutinating concentration, LPS-sensitized sheep erythrocytes); set-up: species or system Salmonella minnesota
[2] = LPS-neutralizing activity (lethality-suppressing activity) in LPS/galactosamine mice; assay type: in vivo
[3] = test system: E. coli O157:H7 or Klebsiella; methicillin-resistant Staphylococcus aureus (MRSA); assay: Antimicrobial activity on various gram-negative and gram-positive bacteria (1), FIG. 5; assay type: cell-based; details: 20 μg/ml
[4] = Table 3, lower MAC = stronger binding
[5] = Table 9, 20 μg/mouse i.p. with 0.1 μg LPS and 25 mg galactosamine, 30 days
[6] = Table 9, 40 μg/mouse i.p. with 0.1 μg LPS and 25 mg galactosamine, 30 days

Sequence	LPS-Binding Activity (MAC) ([1]; Table 4)	Number of mice (death/total) ([2]; Table 10, 20 μg/mouse)	Survival ratio ([2]; Table 10, 20 μg/mouse i.p.)	Number of mice (death/total) ([2]; Table 10, 40 μg/mouse)	Survival ratio ([2]; Table 10, 40 μg/mouse i.p.)	LPS-Binding Activity (MAC) [1, 4]	antimicrobial activity (100% minus relative CFU), in words [3]	Number of mice (death/total) ([2]; Table 9, 20 μg/mouse)	Survival ratio [2, 5]	Number of mice (death/total) ([2]; Table 9, 40 μg/mouse)	Survival ratio [2, 6]
FRKSKEKIGKLFKRIVQRIKDFLRNLV [(a)]	0.8 µg/mL	6/9	33.3%	4/8	50.0%	–	–	–	–	–	–
EKIGKLFKRIVQRILDFLRNLV [(d)]	–	–	–	–	–	0.8 μg/mL and 0.3 μM	potent antimicrobial activity particularly on gram-negative bacteria	4/8	50.0%	2/16	87.5%
FRKSKEKIGKFFKRIVQRIFDFLRNLV [(c)]	0.4 µg/mL	0/9	100.0%	0/8	100.0%	–	–	–	–	–	–
FRKSKEKIGKEFKRIVQRIKDFLRNLV [Peptide A1, reference compound]	6.3 µg/mL	–	–	7/8	12.5%	3.1 μg/mL and 0.9 μM	–	–	–	7/8	12.5%
EKIGKEFKRIVQRIKDFLRNLV [Peptide A3, reference compound]	–	–	–	–	–	25.0 μg/mL and 9.2 μM	–	–	–	8/8	0.0%
FRKSKEKIGKLFKRIVQRILDFLRNLV [(b)]	0.4 µg/mL	2/17	83.0%	1/25	96.0%	0.2 μg/mL and 0.06 μM	potent antimicrobial activity particularly on gram-negative bacteria	1/8	87.5%	0/17	100.0%
